T1: RBFOX1 RRM (Homo sapiens, UniProt Q9NWB1 109-208)
T1 sequence: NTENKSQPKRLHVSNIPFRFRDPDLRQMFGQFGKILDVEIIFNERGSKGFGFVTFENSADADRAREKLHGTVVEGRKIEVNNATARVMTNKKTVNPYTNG

B1: UGUCUAA (DNA:RNA)
RNA: GGGAGACCGGAAUUCAGAUUGUCCUGUCUAAUUAAAUCCCGUCGUAGCCACCA
DNA 1: CAATCTGAATTCCGGTCTCCC
DNA 2: TGGTGGCTACGACGGGATT
B2: AUACAUU (DNA:RNA)
RNA: B1 RNA with U25A, G26U, U27A, U29A, A30U, A31U
DNA 1: CAATCTGAATTCCGGTCTCCC
DNA 2: TGGTGGCTACGACGGGATT
B3: AGGGCGA (DNA:RNA)
RNA: B1 RNA with U25A, U27G, C28G, U29C, A30G
DNA 1: CAATCTGAATTCCGGTCTCCC
DNA 2: TGGTGGCTACGACGGGATT
B4: CUCACCA (DNA:RNA)
RNA: B1 RNA with U25C, G26U, U27C, C28A, U29C, A30C
DNA 1: CAATCTGAATTCCGGTCTCCC
DNA 2: TGGTGGCTACGACGGGATT
B5: UGUGUGG (DNA:RNA)
RNA: B1 RNA with C28G, A30G, A31G
DNA 1: CAATCTGAATTCCGGTCTCCC
DNA 2: TGGTGGCTACGACGGGATT
B6: UUAGGGC (DNA:RNA)
RNA: B1 RNA with G26U, U27A, C28G, U29G, A30G, A31C
DNA 1: CAATCTGAATTCCGGTCTCCC
DNA 2: TGGTGGCTACGACGGGATT
B7: GACCGUG (DNA:RNA)
RNA: B1 RNA with U25G, G26A, U27C, U29G, A30U, A31G
DNA 1: CAATCTGAATTCCGGTCTCCC
DNA 2: TGGTGGCTACGACGGGATT
B8: UAAACAU (DNA:RNA)
RNA: B1 RNA with G26A, U27A, C28A, U29C, A31U
DNA 1: CAATCTGAATTCCGGTCTCCC
DNA 2: TGGTGGCTACGACGGGATT
B9: UGUCCGU (DNA:RNA)
RNA: B1 RNA with U29C, A30G, A31U
DNA 1: CAATCTGAATTCCGGTCTCCC
DNA 2: TGGTGGCTACGACGGGATT
B10: GAGGAGG (DNA:RNA)
RNA: GGGAGACCGGAAUUCAGAUUGUCCGAGGAGGUUAAAUCCCGUCGUAGCCACCA
DNA 1: CAATCTGAATTCCGGTCTCCC
DNA 2: TGGTGGCTACGACGGGATT
B11: CGUGAAA (DNA:RNA)
RNA: B1 RNA with U25C, C28G, U29A
DNA 1: CAATCTGAATTCCGGTCTCCC
DNA 2: TGGTGGCTACGACGGGATT
B12: ACCCCAU (DNA:RNA)
RNA: B1 RNA with U25A, G26C, U27C, U29C, A31U
DNA 1: CAATCTGAATTCCGGTCTCCC
DNA 2: TGGTGGCTACGACGGGATT
B13: AGUGGCC (DNA:RNA)
RNA: B1 RNA with U25A, C28G, U29G, A30C, A31C
DNA 1: CAATCTGAATTCCGGTCTCCC
DNA 2: TGGTGGCTACGACGGGATT
B14: UAUUACG (DNA:RNA)
RNA: B10 RNA with G25U, G27U, G28U, G30C
DNA 1: CAATCTGAATTCCGGTCTCCC
DNA 2: TGGTGGCTACGACGGGATT
B15: CAAAGUU (DNA:RNA)
RNA: B10 RNA with G25C, G27A, G28A, A29G, G30U, G31U
DNA 1: CAATCTGAATTCCGGTCTCCC
DNA 2: TGGTGGCTACGACGGGATT
B16: CUCGCCA (DNA:RNA)
RNA: B10 RNA with G25C, A26U, G27C, A29C, G30C, G31A
DNA 1: CAATCTGAATTCCGGTCTCCC
DNA 2: TGGTGGCTACGACGGGATT
B17: CUAUUAA (DNA:RNA)
RNA: B1 RNA with U25C, G26U, U27A, C28U
DNA 1: CAATCTGAATTCCGGTCTCCC
DNA 2: TGGTGGCTACGACGGGATT
B18: CCAGCUU (DNA:RNA)
RNA: B10 RNA with G25C, A26C, G27A, A29C, G30U, G31U
DNA 1: CAATCTGAATTCCGGTCTCCC
DNA 2: TGGTGGCTACGACGGGATT
B19: CGCAGAA (DNA:RNA)
RNA: B1 RNA with U25C, U27C, C28A, U29G
DNA 1: CAATCTGAATTCCGGTCTCCC
DNA 2: TGGTGGCTACGACGGGATT
B20: AUUUACU (DNA:RNA)
RNA: B10 RNA with G25A, A26U, G27U, G28U, G30C, G31U
DNA 1: CAATCTGAATTCCGGTCTCCC
DNA 2: TGGTGGCTACGACGGGATT

Changes are numbered by the printed parent chain; changes in the protein carry UniProt numbers. Some of the results follow.

This experiment has as its target T1, RBFOX1 RRM. Briefly: EMSA; HiTS-Eq, 1 nM pool, 10 min; buffer printed only for the single-RNA assays: 10 mM Tris pH 7.5, 150 mM NaCl, 3.4 mM EDTA, 0.001% NP-40, 30 C. As to conditions: tags: His6 N-terminal (pET28a); label: 5' 32P. In outline: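 A pool of RNA with 7 randomized nucleotides, 5′-radiolabelled and with DNA-annealed flanks, was equilibrated at 1 nM for 10 min in 50 µL with purified RbFox RRM, wild type or mutant, across increasing protein concentrations. Free RNA was separated by 8% native PAGE, excised, reverse-transcribed, barcoded by PCR and sequenced. Relative association constants were obtained from read-count changes of each RNA species versus the control reaction and normalised to the cognate motif.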
(Mobility shift assays separate free from complexed probe on a gel.)
As to B1, the binding signal is 0.00962 KA relative to UGCAUGU.
Under B2 stands 0.000451 KA relative to UGCAUGU.
Under B3 stands 0.0185 KA relative to UGCAUGU; under B4, 0.00172 KA relative to UGCAUGU; under B5, 0.0178 KA relative to UGCAUGU.
On to B6, for which the binding signal was 0.0028 KA relative to UGCAUGU.
With B7 the figure was 0.0127 KA relative to UGCAUGU; with B8, 0.00189 KA relative to UGCAUGU.
With B9 the figure was 0.0131 KA relative to UGCAUGU; with B10, 0.0185 KA relative to UGCAUGU; with B11, 0.00508 KA relative to UGCAUGU.
Under B12 stands 0.000316 KA relative to UGCAUGU; under B13, 0.0147 KA relative to UGCAUGU.
Regarding B14, the binding signal is 0.0123 KA relative to UGCAUGU.
With B15 the figure was 0.00359 KA relative to UGCAUGU.
With B16 the figure was 0.00557 KA relative to UGCAUGU; with B17, 0.00764 KA relative to UGCAUGU.
B18: the binding signal was 0.0059 KA relative to UGCAUGU.
On to B19, for which the binding signal was 0.0087 KA relative to UGCAUGU.
With B20 the figure was 0.00236 KA relative to UGCAUGU.

Source of the values: publication PMC9911399, “Two distinct binding modes provide the RNA-binding protein RbFox with extraordinary sequence specificity”.
